# The campaign covered roughly 220,000 compounds. About 5,700 (2.6%) were called active. Inconclusive means that the source gave no clear call. Such entries were picked first, then a sample of the others. Calls follow the shape of the dose curve; as a rule, active = well fitted inhibition curve with a large enough effect; inconclusive = small, poorly fitted or top-dose-only effect; inactive = no such curve, though single readings can be large or run the other way. Where the call is inconclusive, the potency comes from a doubtful curve fit.
# Target: Lysine-specific demethylase 5B (Homo sapiens) (UniProt Q9UGL1)
# UniProt Q9UGL1, sequence (Q9UGL1 whole entry, looked up): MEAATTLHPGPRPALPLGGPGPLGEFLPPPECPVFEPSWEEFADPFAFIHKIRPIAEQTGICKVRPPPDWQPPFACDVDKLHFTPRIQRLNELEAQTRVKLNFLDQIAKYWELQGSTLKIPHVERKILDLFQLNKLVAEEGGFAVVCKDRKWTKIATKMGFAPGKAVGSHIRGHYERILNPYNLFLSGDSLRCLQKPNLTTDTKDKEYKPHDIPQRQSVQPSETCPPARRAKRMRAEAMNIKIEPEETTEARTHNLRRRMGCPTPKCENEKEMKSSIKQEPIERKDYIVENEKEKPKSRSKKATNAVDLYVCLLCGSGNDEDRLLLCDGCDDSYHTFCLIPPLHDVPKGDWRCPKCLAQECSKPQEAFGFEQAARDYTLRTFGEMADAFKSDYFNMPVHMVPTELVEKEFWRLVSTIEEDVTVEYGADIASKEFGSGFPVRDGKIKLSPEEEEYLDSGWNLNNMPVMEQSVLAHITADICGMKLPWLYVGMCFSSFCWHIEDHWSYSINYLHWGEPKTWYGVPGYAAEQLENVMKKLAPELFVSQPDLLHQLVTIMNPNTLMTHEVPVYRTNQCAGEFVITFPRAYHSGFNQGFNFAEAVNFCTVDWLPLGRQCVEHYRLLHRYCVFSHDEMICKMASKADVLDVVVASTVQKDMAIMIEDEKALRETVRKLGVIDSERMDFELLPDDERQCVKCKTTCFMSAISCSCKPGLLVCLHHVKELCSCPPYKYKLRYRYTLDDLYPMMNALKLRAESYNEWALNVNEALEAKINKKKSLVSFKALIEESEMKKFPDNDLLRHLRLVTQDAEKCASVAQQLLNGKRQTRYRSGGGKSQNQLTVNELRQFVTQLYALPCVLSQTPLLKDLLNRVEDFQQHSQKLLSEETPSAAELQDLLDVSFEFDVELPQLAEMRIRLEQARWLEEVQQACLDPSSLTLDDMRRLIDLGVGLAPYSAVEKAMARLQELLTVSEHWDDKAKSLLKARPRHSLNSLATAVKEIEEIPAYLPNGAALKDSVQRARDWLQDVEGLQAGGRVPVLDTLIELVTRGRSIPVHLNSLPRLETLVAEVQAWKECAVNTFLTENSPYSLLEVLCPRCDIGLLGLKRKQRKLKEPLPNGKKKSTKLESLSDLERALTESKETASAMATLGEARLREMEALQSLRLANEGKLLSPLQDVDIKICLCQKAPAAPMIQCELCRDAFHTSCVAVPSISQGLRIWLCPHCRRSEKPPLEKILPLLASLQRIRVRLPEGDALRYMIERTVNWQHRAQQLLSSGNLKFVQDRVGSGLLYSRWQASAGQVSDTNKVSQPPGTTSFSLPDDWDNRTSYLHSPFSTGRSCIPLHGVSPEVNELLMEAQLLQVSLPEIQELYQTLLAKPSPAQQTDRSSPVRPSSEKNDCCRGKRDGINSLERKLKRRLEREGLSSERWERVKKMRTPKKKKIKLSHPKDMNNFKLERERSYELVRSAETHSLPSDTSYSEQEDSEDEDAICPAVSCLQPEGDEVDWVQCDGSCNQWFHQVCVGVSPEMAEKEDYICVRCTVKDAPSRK
# Assay: Primary screen for KDM5B Histone Demethylases FDH-coupled qHTS; also: nearly all actives have a fitted effect of over 70% in size; as to activity change, negative = inhibition: 0% is about no effect
# Settings: FDH-coupled NADH fluorescence (FDH is formaldehyde dehydrogenase); activity change, negative = inhibition: at 57.7 µM (top of the series) unless noted
# Procedure, shortened: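 Compound dilutions met 200 nM (final) KDM5BΔAP for 10 min at room temperature before substrate addition. The substrate mix held 12.5 µM H3K4me3 with cofactors 25 µM α-ketoglutarate and 50 µM Fe²⁺. NADH signal gain over 30 min defined activity.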
# Potency is read from the fitted curve at half-maximal effect; tags tell the direction and shape of the fitted curve.
SMILES,Potency,"activity change, negative = inhibition"
CN1CC2(CCCN(CC3CC3)C2)c2cc(C(=O)N3CC(O)C3)ccc21 (centres undefined),"inconclusive: 39.8 µM [inhibitor, partial curve, poor fit]",–
COC(=O)c1sc(=S)n(-c2c(C)cccc2C)c1N,–,inactive: -5.92%
CCCc1cc(=O)oc2cc(C)cc(OC(C)C(=O)NCCCO)c12 (centres undefined),"inconclusive: 28.2 µM [inhibitor, partial curve, poor fit]",–
COCCn1cnnc1SCc1cccc(Cl)c1,–,inactive: 20%
CCc1ccc(N2CC(c3nc4ccccc4n3Cc3ccccc3C)CC2=O)cc1 (centres undefined),"inconclusive: 25.1 µM [inhibitor, single point]",–
Cc1cccc(CN2CCC(C(=O)N3CCCCCCNC(=O)CC3)CC2)c1,"inconclusive: 14.1 µM [inhibitor, partial curve, poor fit]",–
NS(=O)(=O)c1ccc(NC(c2ccccc2)C2CC2)c([N+](=O)[O-])c1 (centres undefined),–,inactive: 5.1%
CCOc1ccc(C(=O)NCCc2sc(-c3cccc(F)c3)nc2C)cc1OCC,"inconclusive: 35.5 µM [inhibitor, partial curve, poor fit]",–
CC(C)CNc1nc(C(=O)Nc2ccccc2O)cs1,"inconclusive: 22.4 µM [inhibitor, partial curve, poor fit]",–
COc1ccccc1CCC(=O)N1CCC2(CC1)N(c1ccccc1)C(=O)CS2(=O)=O,–,inactive: -1.73%
CCc1ccccc1NS(=O)(=O)c1ccc2[nH]cc(C(=O)NC3CCCC3)c(=O)c2c1,–,inactive: -16%
Cc1cccc(N/N=C/c2ccc(F)c(F)c2)c1,–,inactive: -11.5%
CC(C)(C)NC(=O)NC(=O)CN1c2cccc3cccc(c23)S1(=O)=O,"inconclusive: 28.2 µM [inhibitor, partial curve, poor fit]",–
COc1ccc2[nH]c3c(c2c1)CCN(C)C31CCN(C(=O)C2CC2)CC1,"inconclusive: 15.8 µM [inhibitor, single point]",–
CC(C)N1C(=O)CO[C@H]2CN(Cc3ncc[nH]3)C[C@H]21,"inconclusive: 31.6 µM [inhibitor, partial curve, poor fit]",–
CCN1c2cc(C(=O)NCc3ccc(F)c(Cl)c3)ccc2C(=O)N2CCCCCC21 (centres undefined),"inconclusive: 28.2 µM [inhibitor, partial curve, poor fit]",–
COC(=O)/C=C1/SC(=NC(=O)c2ccc(Cl)cc2)NC1=O,"inconclusive: 39.8 µM [inhibitor, partial curve, poor fit]",–
Oc1ccc(-c2nc(C3CC3)nc3c2CCN(Cc2ccc(F)cc2)CC3)cc1,–,inactive: -6.58%
Nc1nccnc1C(=O)NCCNc1ncc(C(F)(F)F)cc1Cl,"inconclusive: 28.2 µM [inhibitor, partial curve, poor fit]",–
CNc1ncccc1C(=O)N1CC[C@@H](c2ccc3c(c2)OCO3)[C@H](O)C1,active: 28.2 µM,–
Cc1cccc2[nH]cc(C(=O)/C(C#N)=C\c3ccc(C#N)cc3)c12,"inconclusive: 20 µM [inhibitor, partial curve, poor fit]",–
CNCc1ccccn1,"inconclusive: 7.94 µM [inhibitor, full curve, poor fit]",–
NC(=O)C1CCN(Cc2nnc3cc(-c4nc(-c5ccccc5)no4)ccn23)CC1,active: 6.31 µM,–

SMILES,Potency,"activity change, negative = inhibition"
CCCOC(=O)Nc1ccccc1N=C1CCC/C1=C\c1ccccc1,"inconclusive: 11.2 µM [inhibitor, partial curve, poor fit]",–
CCOC(=O)c1cnn2c(C(F)(F)F)cc(-c3ccc(Br)cc3)nc12,–,inactive: -4.1%
NS(=O)(=O)c1ccc(F)c(C(=O)NCc2noc(-c3ccco3)n2)c1,–,inactive: 8.53%
O=C(NNC(=S)NC(=O)C(c1ccccc1)c1ccccc1)c1ccc(NC(=O)c2ccccc2)cc1,"inconclusive: 39.8 µM [inhibitor, single point]",–
O=S(=O)(c1cccs1)N1CCCC2(C1)Nc1cccnc1NC2=NC1CCCC1 (centres undefined),active: 11.2 µM,–
COc1cccc(/C=C/c2nc(C#N)c(N3CCCCCC3)o2)c1,"inconclusive: 14.1 µM [inhibitor, partial curve, poor fit]",–
FC(F)(F)CN1CCN(c2nc(-c3cccnc3)nc3ccccc23)CC1,–,inactive: 7.81%
O=C(C1CC1)N1CCC(Cc2nncn2-c2ccccc2)C1 (centres undefined),–,inactive: 5.85%
COc1ccc(-c2c(C)c3ccc(OCC(=O)OC(C)C)cc3oc2=O)cc1,"inconclusive: 35.5 µM [inhibitor, partial curve, poor fit]",–
O=C(NC1CCN(Cc2ccccc2)CC1)c1cc2ccccc2[nH]1,"inconclusive: 25.1 µM [inhibitor, single point]",–
CCn1c(SC(C)C(=O)Nc2cccc(F)c2)nc2ccccc2c1=O (centres undefined),–,inactive: 5.2%
COc1ccc(-c2nc(C)nc3c2CCN(CC2CCCCC2)CC3)cc1,active: 28.2 µM,–
CC(C)CNC(=O)Cc1ccc(-n2c(=O)c3ccccc3n(Cc3ccccc3F)c2=O)cc1,–,inactive: 22.2%
Cc1ccc(S(=O)(=O)c2nnn3c2nc(NCc2ccc4c(c2)OCO4)c2sccc23)cc1,"inconclusive: 0.794 µM [inhibitor, partial curve, poor fit]",–
COc1cccc(-c2cc3c(=O)n(CCNC(=O)c4cc(Cl)ccc4F)ccn3n2)c1,active: 25.1 µM,–
CN(c1ccccc1)c1cc(=O)c2ccnc(NC3CCOCC3)c2o1,–,inactive: -2.58% [at 86.2 µM]
Cc1ccc(NC(=O)c2c3c(nc4ccccc24)CCCC3)cc1Cl,–,inactive: 1.43%
O=C(Cc1cccc(Cl)c1)N1CCC2(C1)C(=O)N(CCc1ccccc1)c1ccccc12 (centres undefined),inactive,–
Cc1ccc(S(=O)(=O)N2CCn3cccc3C2c2ccccc2)cc1 (centres undefined),–,inactive: -25.9%
O=C(Nc1ccc(OC(F)(F)F)cc1)C(Cc1ccccc1)NS(=O)(=O)c1cccc2nsnc12 (centres undefined),"inconclusive: 31.6 µM [inhibitor, single point]",–
CC1CCCN(CCCNC(=O)c2ccc3c(c2)N(Cc2cccc(Cl)c2)C(=O)c2ccccc2S3(=O)=O)C1 (centres undefined),"inconclusive: 31.6 µM [inhibitor, single point]",–
COCCNC(=O)[C@@H]1C[C@H](Oc2ccccc2)CN1C(=O)c1cc2ccccc2[nH]1,"inconclusive: 22.4 µM [inhibitor, single point]",–
CCN1c2cc(C(=O)Nc3ccccc3C)ccc2C(=O)N2CCCCCC21 (centres undefined),"inconclusive: 28.2 µM [inhibitor, partial curve, poor fit]",–

SMILES,Potency,"activity change, negative = inhibition"
CC1CCCCN1CCNC(=O)c1nn(C)c2c1COc1ccccc1-2 (centres undefined),"inconclusive: 15.8 µM [inhibitor, partial curve, poor fit]",–
Clc1ccccc1N1CCN(Cc2c[nH]c3ccccc23)CC1,"inconclusive: 10 µM [inhibitor, partial curve, poor fit]",–
CCCCn1c(=NC(=O)C(C)(C)Oc2ccc(Cl)cc2)c(C(=O)OCC)cc2c(=O)n3ccccc3nc21,"inconclusive: 2.82 µM [inhibitor, full curve, poor fit]",–
COc1cccc(N2CCN(C(=O)c3cc4c(s3)-c3c(C)cccc3OC4)CC2)c1,"inconclusive: 35.5 µM [inhibitor, partial curve, poor fit]",–
N#Cc1ccc(/C=C/C(=O)c2cccc(N3CCOCC3)c2)cc1,"inconclusive: 28.2 µM [inhibitor, single point]",–
O=C(NCc1ccccn1)c1ccc(Cn2ccn3nc4c(c3c2=O)CCCC4)cc1,–,inactive: 5.4%
Cn1ccnc1CN1CCN(C(C(=O)O)c2cccc3c2OCC3)CC1 (centres undefined),"inconclusive: 12.6 µM [inhibitor, partial curve, poor fit]",–
Cc1ccc2c(=O)cc(C(=O)Nc3nnc(CC(C)C)s3)oc2c1,–,inactive: -8.24%
Cc1c(-c2ccccc2)oc2c(C(=O)OCC(=O)NC(=O)NC(C)C)cccc2c1=O,–,inactive: -7.26%
COc1ccccc1CNC(=O)CSc1nc2ccccc2c2nc(=O)c(-c3ccccc3)nn12,–,inactive: -5.97%
CCOC(=O)c1nc(N(Cc2ccccc2)C(C)C)c2ccccc2n1,–,inactive: 11.1%
CN(C)C(=O)c1cccn2nccc12,"inconclusive: 44.7 µM [inhibitor, single point]",–
O=C(Cc1ccccc1)Nc1c(C(=O)c2ccccc2)oc2ccccc12,"inconclusive: 31.6 µM [inhibitor, partial curve, poor fit]",–
COc1ccc(CNC(=O)c2cc3cc4ccc(C)cc4nc3o2)cc1,"inconclusive: 3.98 µM [inhibitor, partial curve, poor fit]",–
Cc1ccc(C2=NC3(CCN(C(=O)c4ccc5c(c4)OCO5)CC3)ON2)cc1,–,inactive: 0.501%
Cc1ccc(NC(=O)CSc2nnc(-c3nnn(-c4ccc(F)cc4)c3C)o2)cc1Br,"inconclusive: 1.78 µM [inhibitor, full curve, poor fit]",–
Cc1noc(C)c1-c1cc2c(cc(-c3ccccc3)n2C)c(-c2cnn(C)c2)n1,active: 35.5 µM,–
CCCCC(=O)Nc1ccc(C(=O)NNC(=S)NC(=O)c2ccco2)cc1,"inconclusive: 28.2 µM [inhibitor, single point]",–
Cc1onc(-c2ccccc2)c1C(=O)Nc1ccc(NC(=O)c2c(-c3ccccc3)noc2C)cc1,–,inactive: -5.39%
N#Cc1nc(C2CC2)oc1N1CCN(Cc2c(F)cccc2Cl)CC1,–,inactive: 12.1%
Cc1ccccc1NC(=O)Cn1c(C)cc(=O)n2nc(-c3cccs3)nc12,"inconclusive: 22.4 µM [inhibitor, partial curve, poor fit]",–
COc1ccc(-c2cc(C(=O)Oc3ccc(C)cc3)c3ccccc3n2)cc1,"inconclusive: 31.6 µM [inhibitor, partial curve, poor fit]",–
CC(C)Oc1ccc(C(=O)N2CCC(c3nc4ccccc4o3)CC2)cc1,"inconclusive: 17.8 µM [inhibitor, partial curve, poor fit]",–

# — PubChem BioAssay AID1347165 (National Center for Advancing Translational Sciences (NCATS), 2019)
